# Some of the results follow.
# B1: NanI (Corynebacterium diphtheriae), C6JSW7 (protein)
# chain: MTNTLESNPMTTTTGALTITFATTCDGPLAHIPHHLDLNIIHGRIQGTTAHRRIDAEDPDGLDDGLPHHLCLSVDTTGTHLFIDGYEAFSTTQTEWFDTSELTLNPHGDLTIIDHQILNHAPTPRQARNLAPAAEPLVWFAGSHLSTRDTQRISHLTHGSLRLLMKTRGTGQGGVAFQAHTINGDLTLEIIDGTLIFSVRCHDEDYVRITAPGRWDDGQIYDVVIVCGRGATDIYVDGQQLIHSPGAAFFNDLSGELSVHIGTAASGVRLFGEVQSGMIYPHVFNHHQVQRLATVEPIATQALFDCLLDGAQSYRIPSLITTDSGVIIAGADKRVSIANDAPNDIDFVLRRSVDGGRTWQPPRTILQLPDTACVTDSVLLQDHTTGRIFAFLDQFPAGIGQPNAAFGTGFDADGNRIGHFADGSTCTMPREVDQLEASFFSDPHTAPPGIVFQHPSCHLWMLTSDDDGLTWSTPRDLTPDVKEEWMRFCGTSPGNGIQLQRDTHAGRLLIPMYYTKGDQFFAAALYSDDHGDTWHRGESPDLEMYESTLVEASDGSVLLWARNQHPSGAVAHARSTDGGHSWSQVTFNPNVPEIFSQPNALRVTNPDGIIFANASQLLPFRGRGVLRMSTNDGASWQHNRVFNPRHYVYQCMTQLPDGSIGLLWEREMQGLFFSIIPMTWIMQGYAL
# Key:
# Test in all cases: glycan array binding signal (z-score within array); higher = stronger binding
# Conditions in all cases: glycan notation: IUPAC condensed, linker removed
# [1] = target: Gal(b1-3)GlcNAc(a1-6)Gal(b1-4)GlcNAc
# Procedure, shortened: (§1)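 Glycan array data were curated from 3228 arrays in the Consortium for Functional Glycomics database and kept only where the protein sequence was available. Glycan names were converted to IUPAC-condensed notation, and columns mapping to the same glycan were averaged. The binding signal is a within-array Z-score, averaged across arrays of the same protein sequence at different concentrations or buffers and across linkers. Negative Z-scores can be read as non-binding.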
# [2] = target: Gal(b1-3)GlcNAc(b1-2)Man(a1-3)[Gal(b1-3)GlcNAc(b1-2)Man(a1-6)]Man(b1-4)GlcNAc(b1-4)GlcNAc
# Procedure, shortened: as §1
# [3] = target: Gal(b1-3)GlcNAc(b1-2)Man(a1-3)[Gal(b1-3)GlcNAc(b1-2)Man(a1-6)]Man(b1-4)GlcNAc(b1-4)[Fuc(a1-6)]GlcNAc
# Procedure, shortened: as §1
# [4] = target: Gal(b1-3)GlcNAc(b1-2)[Gal(b1-3)GlcNAc(b1-6)]Man(a1-6)[Gal(b1-3)GlcNAc(b1-2)Man(a1-3)]Man(b1-4)GlcNAc(b1-4)GlcNAc
# Procedure, shortened: as §1
# [5] = target: Gal(b1-3)GlcNAc(b1-3)Gal(b1-3)GlcNAc
# Procedure, shortened: as §1
# [6] = target: Gal(b1-3)GlcNAc(b1-3)Gal(b1-4)Glc
# Procedure, shortened: as §1
# [7] = target: Gal(b1-3)GlcNAc(b1-3)Gal(b1-4)GlcNAc
# Procedure, shortened: as §1
# [8] = target: Gal(b1-3)GlcNAc(b1-3)Gal(b1-4)GlcNAc(b1-6)[Gal(b1-3)GlcNAc(b1-3)]Gal(b1-4)Glc
# Procedure, shortened: as §1
# [9] = target: Gal(b1-3)GlcNAc(b1-3)Gal(b1-4)[Fuc(a1-3)]GlcNAc(b1-6)[Gal(b1-3)GlcNAc(b1-3)]Gal(b1-4)Glc
# Procedure, shortened: as §1
# [10] = target: Gal(b1-3)GlcNAc(b1-3)GalNAc
# Procedure, shortened: as §1
# [11] = target: Gal(b1-3)GlcNAc(b1-6)Gal(b1-4)GlcNAc
# Procedure, shortened: as §1
# [12] = target: Gal(b1-3)[Fuc(a1-4)]GlcNAc
# Procedure, shortened: as §1
# [13] = target: Gal(b1-3)[Fuc(a1-4)]GlcNAc(b1-2)Man(a1-3)[Gal(b1-3)[Fuc(a1-4)]GlcNAc(b1-2)Man(a1-6)]Man(b1-4)GlcNAc(b1-4)GlcNAc
# Procedure, shortened: as §1
# [14] = target: Gal(b1-3)[Fuc(a1-4)]GlcNAc(b1-2)Man(a1-3)[Gal(b1-3)[Fuc(a1-4)]GlcNAc(b1-2)Man(a1-6)]Man(b1-4)GlcNAc(b1-4)[Fuc(a1-6)]GlcNAc
# Procedure, shortened: as §1
# [15] = target: Gal(b1-3)[Fuc(a1-4)]GlcNAc(b1-3)Gal(b1-3)[Fuc(a1-4)]GlcNAc
# Procedure, shortened: as §1
# [16] = target: Gal(b1-3)[Fuc(a1-4)]GlcNAc(b1-3)Gal(b1-4)GlcNAc
# Procedure, shortened: as §1
# [17] = target: Gal(b1-3)[Fuc(a1-4)]GlcNAc(b1-3)Gal(b1-4)[Fuc(a1-3)]GlcNAc
# Procedure, shortened: as §1
# [18] = target: Gal(b1-3)[GlcNAc(b1-6)]GalNAc
# Procedure, shortened: as §1
# [19] = target: Gal(b1-3)[Neu5Ac(a2-6)]GalNAc
# Procedure, shortened: as §1
# [20] = target: Gal(b1-3)[Neu5Ac(a2-6)]GlcNAc(b1-6)Gal(b1-4)Glc
# Procedure, shortened: as §1
# [21] = target: Gal(b1-3)[Neu5Ac(b2-6)]GalNAc
# Procedure, shortened: as §1
# Gal(b1-4)Gal = target: Gal(b1-4)Gal
# Procedure, shortened: as §1
# [22] = target: Gal(b1-4)GalNAc(a1-3)[Fuc(a1-2)]Gal(b1-4)GlcNAc
# Procedure, shortened: as §1
# [23] = target: Gal(b1-4)GalNAc(b1-3)[Fuc(a1-2)]Gal(b1-4)GlcNAc
# Procedure, shortened: as §1
# Gal(b1-4)Glc = target: Gal(b1-4)Glc
# Procedure, shortened: as §1
# Gal(b1-4)Glc6S = target: Gal(b1-4)Glc6S
# Procedure, shortened: as §1
# Gal(b1-4)GlcNAc = target: Gal(b1-4)GlcNAc
# Procedure, shortened: as §1
# [24] = target: Gal(b1-4)GlcNAc(a1-6)Gal(b1-4)GlcNAc
# Procedure, shortened: as §1
# Gal(b1-4)GlcNAc(b1-2)Man = target: Gal(b1-4)GlcNAc(b1-2)Man
# Procedure, shortened: as §1
# [25] = target: Gal(b1-4)GlcNAc(b1-2)Man(a1-3)Man(b1-4)GlcNAc(b1-4)GlcNAc
# Procedure, shortened: as §1
binder,measurement,setting,value
B1,glycan array binding signal (z-score),[1],-0.445
same,glycan array binding signal (z-score),[2],-0.332
same,glycan array binding signal (z-score),[3],0.264
same,glycan array binding signal (z-score),[4],-0.253
same,glycan array binding signal (z-score),[5],-0.24
same,glycan array binding signal (z-score),[6],-0.513
same,glycan array binding signal (z-score),[7],-0.639
same,glycan array binding signal (z-score),[8],-1
same,glycan array binding signal (z-score),[9],-0.386
same,glycan array binding signal (z-score),[10],-1.11
same,glycan array binding signal (z-score),[11],0.002
same,glycan array binding signal (z-score),[12],0.17
same,glycan array binding signal (z-score),[13],1.18
same,glycan array binding signal (z-score),[14],0.086
same,glycan array binding signal (z-score),[15],-0.534
same,glycan array binding signal (z-score),[16],0.773
same,glycan array binding signal (z-score),[17],0.271
same,glycan array binding signal (z-score),[18],-0.012
same,glycan array binding signal (z-score),[19],-0.562
same,glycan array binding signal (z-score),[20],-0.766
same,glycan array binding signal (z-score),[21],-0.195
same,glycan array binding signal (z-score),Gal(b1-4)Gal,-0.102
same,glycan array binding signal (z-score),[22],-0.044
same,glycan array binding signal (z-score),[23],-0.036
same,glycan array binding signal (z-score),Gal(b1-4)Glc,-0.063
same,glycan array binding signal (z-score),Gal(b1-4)Glc6S,0.582
same,glycan array binding signal (z-score),Gal(b1-4)GlcNAc,-0.048
same,glycan array binding signal (z-score),[24],-0.174
same,glycan array binding signal (z-score),Gal(b1-4)GlcNAc(b1-2)Man,0.486
same,glycan array binding signal (z-score),[25],0.048
